Data reported in PubChem BioAssay AID1346428 (National Center for Advancing Translational Sciences (NCATS), 2018).
Among all 48,000 compounds or so, about 1,200 (2.5%) were called active. Not shown: some 2% with an inconclusive outcome.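 The calls were made as follows: active = activation of at least 60% and not above a set upper limit (about 1 call in 100 departs from these limits); inconclusive = activation of 40% to 60%, or above that upper limit; inactive = activation under 40%.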 Some of the results follow.

What follows are compounds tested against Probable G-protein coupled receptor 32 (Homo sapiens) (UniProt O75388) (assay: qHTS for Agonists of Human Resolvin D1 Receptor DRV1). Settings: CHO-K1 GPR32 beta-arrestin PathHunter luminescence, 90 min; at 76.9 µM; hits give high values; zero percent set by DMSO-only wells.
In short: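 Engineered CHO-K1 line co-expressing GPR32-ProLink and EA-beta-arrestin. Compound treatment lasted 90 min at 37 °C. Luminescence was recorded after 1 h with substrate at ambient temperature, relative to DMSO basal wells.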
Also: 0% is about no effect.

Chain of UniProt O75388 (O75388 whole entry, looked up): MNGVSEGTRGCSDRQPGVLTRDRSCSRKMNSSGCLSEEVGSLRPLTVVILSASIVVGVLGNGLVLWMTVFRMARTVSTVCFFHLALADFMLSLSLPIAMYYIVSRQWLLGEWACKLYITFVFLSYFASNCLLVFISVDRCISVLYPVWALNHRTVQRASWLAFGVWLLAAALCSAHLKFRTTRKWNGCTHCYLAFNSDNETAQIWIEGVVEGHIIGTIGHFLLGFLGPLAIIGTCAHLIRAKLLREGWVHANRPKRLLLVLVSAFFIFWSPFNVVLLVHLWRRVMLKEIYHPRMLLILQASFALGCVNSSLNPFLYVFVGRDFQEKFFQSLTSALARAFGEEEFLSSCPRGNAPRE

activation, inactive:
Cc1oc2ncnc(N3CCCCC3)c2c1C(=O)NCC1CCN(Cc2cccc(F)c2)CC1 -4.51%
COc1cc(OC)c(NC(=O)c2cc3c(=O)oc4ccc(C)cc4c3s2)cc1Cl 3.6%
Cc1ccc(-n2ncc3c(NCCO)ncnc32)cc1Cl 48.1%
Cc1cc(NC(=O)c2cc(-c3ccc(Cl)cc3)on2)n(-c2ccccc2)n1 -3.57%
COc1ccc(-c2cc(C(=O)Nc3cccnc3)no2)cc1OC -2.11%
COc1ccc(CNC(=O)Cc2ccc(NC(=O)N3CCSc4ncccc43)cc2)cc1OC -9.36%
COC(=O)c1cc2oc3ccccc3c2n1CC(=O)Nc1ccc(C)c(F)c1 -7.37%
COc1cc(NC(=O)c2ccc3oc(=O)c(S(=O)(=O)c4ccccc4)cc3c2)cc(OC)c1 19.6%
COc1ccc(S(=O)(=O)Nc2cccc(-c3ccc(N4CCC(C)CC4)nn3)c2)c(OC)c1 -2.81%
CCOc1ccc(NC(=O)Cn2c(=O)n(-c3cccc(Cl)c3)c(=O)c3c2c2cc(C)ccc2n3C)cc1 -0.271%
COc1c(C)cc(Br)cc1C(=O)Nc1ccc(-c2nc3ncccc3o2)cc1 11.3%
CNc1cc(NS(=O)(=O)c2ccc(N)cc2)nc(NC)n1 -0.887%
Cc1cccc(C(=O)N2CCc3cc(CNC(=O)COc4ccc(Cl)cc4)ccc32)c1 -6.95%
CCOc1cccc(C2c3[nH]c4ccccc4c3CCN2C(=O)CSc2ccccc2)c1 (stereo not drawn) -37%
CCOC(=O)c1c(NC(=O)c2nc(SCC)ncc2Cl)sc2c1CCCC2 12.2%
Cc1ccc(N2C(=O)CSC23C(=O)N(Cc2ccccc2F)c2ccccc23)cc1F (stereo not drawn) -22.8%
COc1ccc(NC(=O)Cn2c(=O)n(CCc3ccccc3)c(=O)c3c4c(sc32)CCCC4)cc1 -25%
CC(C)c1ccc(NC(=O)C2CCN(S(=O)(=O)c3cccc4nonc34)CC2)cc1 -15%
Cc1ccccc1Nc1c(-c2ccc(Cl)cc2)nc2c(C)cccn12 -30%
CCOC(=O)c1c(C)[nH]c(C)c1S(=O)(=O)NCC(=O)Nc1ccc(C)c(N(C)C)c1 -11.7%
CCOc1cc(CNC(=O)Cn2c(=O)c3cccn3c3ccc(F)cc32)cc(OCC)c1OCC -16.1%
CCSc1nnc2c(n1)OC(c1cc(OC)c(OC)c(OC)c1)Nc1ccccc1-2 (stereo not drawn) -11.7%
Cc1ccccc1NC(=O)CSc1cn(CC(=O)N2CCCCCC2)c2ccccc12 -6.12%
Cc1nc(SCC(=O)Nc2ccccc2C)cc(-c2ccccc2)n1 -7.25%
COc1cc2c(=O)c(C(=O)c3ccc(C)c(C)c3)cn(Cc3ccc(F)cc3)c2cc1OC 3.15%
CCOc1ccccc1NC(=O)c1ccc2c(c1)CCN2S(=O)(=O)c1ccc(C)cc1 -8.02%
Cc1ccc(Cl)cc1NC(=O)CCC(=O)N1CC(C)Sc2ccccc21 (stereo not drawn) -8.48%
CCC1CN(C(=O)N2CCC(C(=O)N3CCN(c4cccc(C)c4C)CC3)CC2)c2ccccc2O1 (stereo not drawn) -15.1%
COc1ccccc1-c1nnc(SCC(=O)Nc2ccccc2F)o1 8.66%
O=C(NCCc1ccc(Cl)cc1)C1CCN(c2ncnc3c2nc2n3CCCCC2)CC1 -10.2%
Cc1ccc(-n2c(=O)c3c4c(sc3n(CC(=O)c3ccc(Cl)cc3)c2=O)CCC4)cc1C 3.06%
CN(Cc1ccco1)C(=O)c1ccc2c(c1)N(Cc1ccccc1F)C(=O)c1ccccc1S2 -36%
CC(=O)N1c2ccc(S(=O)(=O)NCC3CCC(C(=O)Nc4ccc(C)cc4)CC3)cc2CC1C (stereo not drawn) 1.64%
CCc1ccc(NC(=O)CN2CCCN(Cc3cccc(Cl)c3)S2(=O)=O)cc1 3.5%
COC(=O)c1cc2sc(C)cc2n1CC(=O)Nc1ccc(C)c(C)c1 -5.02%
COc1ccc2c(c1)c1c(c(=O)n(-c3ccc(F)c(Cl)c3)c(=O)n1CC(=O)N1CCCC1)n2C -19.1%
Cc1c2cnn(-c3ccccc3)c(=O)c2c(C)n1CC(=O)NCCc1ccc(Cl)cc1 5.24%
CCOc1ccc(NC(=O)c2cc(S(=O)(=O)N3CCCCCC3)cn2C)cc1 -2.58%
COc1cc(CNC(=O)c2ccc3c(c2)N(C)C(=O)C2CCCCN32)cc(OC)c1OC (stereo not drawn) -3.63%
CC(=O)N1CCc2c(sc3c2c(=O)n(-c2ccccc2)c(=O)n3CC(=O)Nc2ccccc2)C1 1.07%
CC(=O)N1c2nc(C(C)C)nn2C2(CCCCC2)[C@@H]2CCCC[C@@H]21 -8.51%
CCOC(=O)[C@H](CCc1ccccc1)N[C@@H](C)C(=O)N1[C@H](C(=O)O)C[C@H]2CCCC[C@@H]21 3.92%
CC(C)CN(CCCNC(=O)c1cc(=O)[nH]c2ccc(S(=O)(=O)N3CCCCCC3)cc12)CC(C)C -2.03%
CCOc1ccc2oc(=O)cc(CN3CCN(c4cc(C)ccc4C)CC3)c2c1 -15.3%
CC(=O)Nc1cccc(NC(=O)CN2C(=O)CCSc3ccccc32)c1 -0.468%
O=C(Nc1ccc2oc(-c3ccc(O)c(Br)c3)nc2c1)c1cc2ccccc2o1 -8.1%
Cc1cccc(N2CCN(C(=O)c3cccn4c(=O)c5cc(Cl)ccc5nc34)CC2C)c1 (stereo not drawn) -5.31%
Cc1nc2nc(NC(=O)c3ccccc3F)[nH]n2c(=O)c1Cl 6.15%
O=C(CSc1nnc(-c2cccc(Cl)c2)o1)N1CCc2ccccc21 4.71%
CC(C)(CO)[C@@H](O)C(=O)NCCCO -1.73%
COc1cc(OC)c(NC(=O)C2=C(C)C(=O)OC23CCCCCC3)cc1Cl -8.56%
CCn1c2c(c(=O)n3ncc(C(=O)Nc4cc(Cl)ccc4C)c13)CN(Cc1ccc(OC)cc1)CC2 -1.14%
COc1ccc(C2C=C(c3cccc(OC)c3)Nc3c(C(=O)Nc4ccccc4)cnn32)cc1 (stereo not drawn) -28.3%
